# Source: publication PMC12820563
# The list shows a part of the results. The list includes weakly bound sequences.
# Target: T1, MBP-FoxP3dN (UniProt Q99JB6)
# T1 sequence: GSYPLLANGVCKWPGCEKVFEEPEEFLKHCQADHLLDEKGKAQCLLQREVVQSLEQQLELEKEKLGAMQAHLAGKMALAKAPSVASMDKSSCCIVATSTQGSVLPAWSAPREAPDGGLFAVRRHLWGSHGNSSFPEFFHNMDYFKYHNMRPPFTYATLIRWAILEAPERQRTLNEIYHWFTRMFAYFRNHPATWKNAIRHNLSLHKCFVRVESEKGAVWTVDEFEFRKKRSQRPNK
# Assay: PD-seq (MBP pull-down with sequencing)
# Details: 20 mM Tris-HCl pH 7.5, 100 mM NaCl, 1.5 mM MgCl2, 0.4 uM protein, 0.1 uM dsDNA library, 30 min, room temperature, amylose pull-down; high values mean tight binding; double strand, one strand shown
row,Sequence,binding signal (RPM ratio (pull-down/input))
1,GATGATTGTTCTCCCAGCTGATGAATTGGAATTTTCGAGTAAACAAATTTTCCTAATCTTTCTGTTCAAGCGCCATCTAC,0.431
2,GATGATTGTTCTCCCAGCTGATGAATTTAATCTTTCGAGTAAACAAATTTTCCTAATCTTTCTGTTCAAGCGCCATCTAC,0.311
3,GATGATTGTTCTCCCAGCTGATGAATTTGCCCTTTCGAGTAAACAAATTTTCCTAATCTTTCTGTTCAAGCGCCATCTAC,0.505
4,GATGATTGTTCTCCCAGCTGATGAATTGGGGACTTCGAGTAAACAAATTTTCCTAATCTTTCTGTTCAAGCGCCATCTAC,0.416
5,GATGATTGTTCTCCCAGCTGATGAATTGTGGGGTTCGAGTAAACAAATTTTCCTAATCTTTCTGTTCAAGCGCCATCTAC,0.885
6,GATGATTGTTCTCCCAGCTGATGAATTGCGGGGGTCGAGTAAACAAATTTTCCTAATCTTTCTGTTCAAGCGCCATCTAC,0.984
7,GATGATTGTTCTCCCAGCTGATGAATTGATCCAGTCGAGTAAACAAATTTTCCTAATCTTTCTGTTCAAGCGCCATCTAC,0.283
8,GATGATTGTTCTCCCAGCTGATGAATTCTAGCACTCGAGTAAACAAATTTTCCTAATCTTTCTGTTCAAGCGCCATCTAC,0.533
9,GATGATTGTTCTCCCAGCTGATGAATTGCATATGTCGAGTAAACAAATTTTCCTAATCTTTCTGTTCAAGCGCCATCTAC,1.46
10,GATGATTGTTCTCCCAGCTGATGAATTCTCGCGATCGAGTAAACAAATTTTCCTAATCTTTCTGTTCAAGCGCCATCTAC,0.472
11,GATGATTGTTCTCCCAGCTGATGAATTAGCCGTTTCGAGTAAACAAATTTTCCTAATCTTTCTGTTCAAGCGCCATCTAC,0.47
12,GATGATTGTTCTCCCAGCTGATGAATTACAGAAATCGAGTAAACAAATTTTCCTAATCTTTCTGTTCAAGCGCCATCTAC,0.35
13,GATGATTGTTCTCCCAGCTGATGAATTCACTCAATCGAGTAAACAAATTTTCCTAATCTTTCTGTTCAAGCGCCATCTAC,0.294
14,GATGATTGTTCTCCCAGCTGATGAATTTTAGAGCTCGAGTAAACAAATTTTCCTAATCTTTCTGTTCAAGCGCCATCTAC,0.218
15,GATGATTGTTCTCCCAGCTGATGAATTCTTCCGTTCGAGTAAACAAATTTTCCTAATCTTTCTGTTCAAGCGCCATCTAC,0.185
16,GATGATTGTTCTCCCAGCTGATGAATTATACCGATCGAGTAAACAAATTTTCCTAATCTTTCTGTTCAAGCGCCATCTAC,0.367
17,GATGATTGTTCTCCCAGCTGATGAATTAGTCCCATCGAGTAAACAAATTTTCCTAATCTTTCTGTTCAAGCGCCATCTAC,0.565
18,GATGATTGTTCTCCCAGCTGATGAATTAGTTGTTTCGAGTAAACAAATTTTCCTAATCTTTCTGTTCAAGCGCCATCTAC,6.61
